Experimental findings from patent US20110130357A1 (priority 2008, published 2011) are described below.

Test [1] relates to Klebsiella pneumonia (ATCC 700603). Particulars: 35° C., 12-18 hrs. The method, then: (§1) The minimum inhibitory concentration of M038 was determined for selected bacterial pathogens. For purposes of the experiments discussed in this paragraph, the minimum inhibitory concentration (MIC) is defined as the minimum concentration of compound needed to inhibit the growth of bacteria. A solution of selected bacteria was inoculated Trypticase Soy broth at 35° C. and incubated for 1-2 hours. Following incubation, the bacterial concentrations were determined, and diluted with broth, if necessary, to an absorption value of 0.08 to 0.1 at 625 nm. The adjusted inoculated medium (100 μL) was diluted with 10 ml broth, and then applied to a 96-well microtiter plate (50 μL). A series of solutions (50 μL each in 2-fold dilution) of M038 was added to the testing wells. The 96-well plate was incubated at 35° C. for 12-18 hrs. The MIC results were repeated at least three times.

Test [2] concerns Staphlococcus aureus (ATCC 33591). Particulars: 35° C., 12-18 hrs. The method, then:
as §1

Regarding `CCCCCCCCO[C@H]1[C@H](O)[C@@H](O)[C@@H](O[C@@H]2[C@@H](O)[C@H](O[C@H]3O[C@H](CN)[C@@H](O)[C@H](O)[C@H]3N)[C@@H](N)C[C@H]2N)O[C@@H]1C` [JL038, 6-O-(6-Deoxy-4-O-n-octyl-α-D-glucopyranosyl)neamine], the “Minimal inhibitory concentration (MIC)” value in test [1] and in test [2] was 250 μ/mL throughout.
